From the supplement of paper PMC10338343
± gives the standard deviation. The list shows a part of the results, in another mix than the full data.

system: MIWI (PIWIL1) piRISC loaded with piRNA #1 (30 nt); assay: pre-steady-state target cleavage rate (min^-1); MIWI and MILI are mouse PIWI proteins and EfPiwi is from a freshwater sponge; tags in brackets are library labels; higher = faster piRNA-guided slicing of the target; details: guide: piRNA #1 5'p-UGAGGUAGUAGGUUGUAUAGUAUCCAGAGG; auxiliary factor: 500 nM mouse GTSF1
Method in brief: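 The pre-steady-state cleavage rate was derived from a burst-and-steady-state fit of Cleave-'n-Seq data. For these assays, 1 nM active affinity-purified piRISC loaded with a single synthetic guide was mixed with […] a transcribed, DNA-blocked target RNA library in HEPES–potassium acetate buffer at 33 °C, with or without 500 nM GTSF1 partner protein, for 0–8 or 0–960 min. Sequencing counts of uncleaved targets were normalised to depth and to weakly complementary targets, and k3 was capped at 0.0001 min^-1 after three trials were pooled.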
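Note: 1 nM active piRISC with 0.1 nM target library at 33 °C single turnover.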

| Sequence | pre-steady-state target cleavage rate |
| --- | --- |
| GGAGACCUUACAAUACAACCUAGUACCUCA | 0.159 ± 0.032 |
| GGUCUGGAAACUAUACAACCUUCUACCUCA | 0.829 ± 0.052 |
| GGAGACCUAACUAUACAACCUACUACUUCA | 1.42 ± 0.15 |
| GGACAGGUUACUAUACAACCUACUACCUCA | 1.9 ± 0.14 |
| GCUCAGGAUACUAUACAACCUACUACCACA | 1.75 ± 0.1 |
| GGAGACGAUACUAUAUAACCUACUACCUCA | 1.94 ± 0.12 |
| GGAGACGAUACUAUAGAACCUACUACCACA | 0.258 ± 0.045 |
| GGAGUGAGAUACUAUACAACCUACUACCUCA | 1.77 ± 0.094 |
| GGAGACCUAACUAUACAACCUACUACCUGA | 0.595 ± 0.081 |
| GGAGACGAUACUAAUGAACCUACUACCUCA | 0.282 ± 0.046 |
| CCUCUGGAUACUAUACAACCUACUAUCCUCA | 0.472 ± 0.047 |
| GGAGACCUAUCUAUACAACCUAGUUCCUCA | 0.0159 ± 0.0051 |
| GGUCUGGAUUCUAUACUACCUACUACCUCA | 1.4 ± 0.12 |
| GGAGACCUUUCUAUACAACCAACUACCUCA | 0.0184 ± 0.0041 |
| CCUCUGGAUACUAUAAAACCUACUACCUCA | 1.84 ± 0.11 |
| GCUCUCGAAACUAUACAACCUACUACCUCA | 1.75 ± 0.12 |
| GGAGACCUAACUAUACAACCUACUACCUACA | 0.983 ± 0.11 |
| GCUCUCGAUACUAUACAACCUACUAGCUCA | 0.779 ± 0.056 |
| GGAGACCUAUCUAUACAACCUACUAUCUCA | 0.314 ± 0.044 |
| GGAGACCUAACUAUACAACGUACAACCUCA | 0.00727 ± 0.0033 |

| Sequence | pre-steady-state target cleavage rate |
| --- | --- |
| GGAGACCUUACUAUAGAACGUACUACCUCA | 0.241 ± 0.022 |
| GGAGACCUAACUAUACAGCCUACUACCUCA | 0.287 ± 0.03 |
| GGAGACCAUACUAUACAACCUACUUCGUCA | 0.345 ± 0.054 |
| GGUCUGGUUACUAUACAAGCUACUACCUCA | 1.14 ± 0.06 |
| GGAGACCAUACUCAUACAACCUACUACCUCA | 0.893 ± 0.099 |
| GGAGACCUAUCUAUAAAACCUACUACCUCA | 0.284 ± 0.04 |
| GGACUGGAUACUUUAGAACCUACUACCUCA | 0.509 ± 0.047 |
| GGAGUGGAUACUAUCCAACCUACUACCUCA | 1.76 ± 0.11 |
| GGAGACCUUACUAUACAACCUAGCUACCUCA | 0.082 ± 0.012 |
| GGAGUCGAUACUAUACAACCUACUACCUGA | 0.476 ± 0.051 |
| GGAGACCUAACUAUACAACCUACUACGCUCA | 0.916 ± 0.1 |
| GGACUGGAUACAAUACAACCUUCUACCUCA | 0.634 ± 0.045 |
| GGAGACCUAUCUAUACAACCUAUUACCUCA | 0.459 ± 0.046 |
| GGAGACCUUAGUAUACAACGUACUACCUCA | 0.0699 ± 0.015 |
| GGAGAGGAUACUAUACAUCCUACUAGCUCA | 0.00683 ± 0.0037 |
| GGAGACCUAUGUAUACAACCUACUGCCUCA | 0.013 ± 0.0027 |
| GCUCUGGAUACUAUGCAACCUACUACCUCA | 1.84 ± 0.1 |
| GGAGAGGAUACUAUACAACCUACUACCUCC [g2:g25:cont:t1C] | 0.801 ± 0.042 |
| GCUCUGGAUACAAUAGAACCUACUACCUCA | 0.787 ± 0.056 |
| GCUCUGGAUACUAUACAACCUACAUGGAGA [g8:g29:cont:t1A] | 0.0189 ± 0.0059 |
